In publication PMC4242493:
The list shows a part of the results. The list includes weakly bound sequences.

molecular target: MaxL homodimer (UniProt P61244); assay: universal protein-binding microarray (PBM); details: PBS-based mixture, 10 nM His-tagged protein dimer, 2% milk, 200 ng/uL BSA, 50 ng/uL salmon testes DNA, 0.02% TX-100; detection with Alexa 488 anti-His …; high values mean tight binding; most listed sequences are background and not binding sites; double strand, one strand shown
Chain of UniProt P61244 (P61244 whole entry): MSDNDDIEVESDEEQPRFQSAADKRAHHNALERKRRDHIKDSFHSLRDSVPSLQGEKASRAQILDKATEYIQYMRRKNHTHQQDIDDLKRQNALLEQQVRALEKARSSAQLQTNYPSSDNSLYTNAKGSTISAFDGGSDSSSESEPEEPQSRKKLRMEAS

| Sequence | binding signal (normalized occupancy) |
| --- | --- |
| AGGTCCTG | 0.0728 |
| GTTGCATA | 0.0786 |
| CAAATGCG | 0.0791 |
| AGAGGGCT | 0.0677 |
| AAGAATGT | 0.0745 |
| CATCCTGG | 0.0785 |
| GGAGGTTA | 0.0765 |
| TGAGCACA | 0.0887 |
| AAAGCACT | 0.0757 |
| CTGCGGGA | 0.0645 |
| AGCACTTC | 0.0743 |
| CCCCCTCC | 0.0782 |
| CATGCGAC | 0.109 |
| AAAAATCC | 0.0734 |
| TGAGGTAA | 0.0764 |
| GAGGGCCA | 0.0686 |
| ATGCAATG | 0.08 |
| TAACGCGA | 0.0699 |
| GGAAACCA | 0.0727 |
| CTGAAAAA | 0.0723 |
| ACGTTGTC | 0.0927 |
| GCAAAACA | 0.0735 |

| Sequence | binding signal (normalized occupancy) |
| --- | --- |
| CATGAGGG | 0.109 |
| CTCAATTA | 0.0702 |
| ATCAGACA | 0.0792 |
| CCGGTATA | 0.0795 |
| CGCATCGC | 0.0705 |
| AGGCCCCA | 0.0721 |
| GCTGATGA | 0.0748 |
| ATGTCGTG | 0.0811 |
| AAGCGGCG | 0.0653 |
| CAAAGGGA | 0.0728 |
| AAGAAAGT | 0.0686 |
| ACAAGATG | 0.0779 |
| CCGAGCGG | 0.0693 |
| ACACGCCA | 0.0895 |
| ATGCGAAG | 0.079 |
| AAGCAGTC | 0.075 |
| GTCACGCA | 0.0927 |
| AATCCTAA | 0.077 |
| CCAGCTAA | 0.0694 |
| AGCGAAAA | 0.0646 |
| ACCTCAAA | 0.0749 |
| TCTTCCCA | 0.0768 |

| Sequence | binding signal (normalized occupancy) |
| --- | --- |
| AGGCTTCC | 0.0708 |
| AGTTGAGC | 0.0748 |
| CTGTTTCA | 0.0741 |
| ATTAAGGA | 0.0744 |
| CCGCCCTC | 0.0714 |
| ATTGGTCA | 0.0779 |
| AAGTATAA | 0.0823 |
| ATGGGTGC | 0.0876 |
| ATGTGTAG | 0.0906 |
| AAGGTACC | 0.0691 |
| AACTCTCC | 0.0732 |
| CCCCTAAC | 0.0774 |
| CGCCAATA | 0.0801 |
| AGTACTAG | 0.0705 |
| CTGTTATA | 0.0805 |
| AAGGCCCG | 0.0664 |
| AGGTTTTC | 0.0736 |
| TGTATTAA | 0.0758 |
| ATCTGATG | 0.0779 |
| GGTGGTGA | 0.0762 |
| GAGCCGGC | 0.0679 |
| AACCGCAT | 0.0887 |

| Sequence | binding signal (normalized occupancy) |
| --- | --- |
| AAAGCCCG | 0.0682 |
| ACACAGAA | 0.0706 |
| GAGTCCCC | 0.0739 |
| CTGCGGTC | 0.0645 |
| CGATGGAG | 0.0744 |
| GATATCGC | 0.0783 |
| CTGCTAGA | 0.0711 |
| AGCAACTC | 0.0723 |
| GACTATCA | 0.078 |
| ACAGTAGA | 0.0759 |
| CTAACTGA | 0.0678 |
| AACATCCA | 0.0849 |
| GTCTACAA | 0.0691 |
| CAACGCGC | 0.0787 |
| ACCTCCGC | 0.0705 |
| ACAGTACA | 0.0836 |
| AAACAGGT | 0.0767 |
| ATAGACGC | 0.0812 |
| AATTATAG | 0.0842 |
| GGCGTCCA | 0.07 |
| CCATGGCC | 0.0766 |
| ACCTAGCC | 0.0695 |

| Sequence | binding signal (normalized occupancy) |
| --- | --- |
| TACGTCTA | 0.0778 |
| CGAATCTA | 0.0681 |
| AGCGCTTG | 0.0662 |
| ACACCCCG | 0.081 |
| CAGTGCGA | 0.0749 |
| GATTTGCA | 0.0765 |
| TAGTAAGA | 0.0762 |
| AGGTACTA | 0.0756 |
| GTATGTGA | 0.0798 |
| ATTGGATG | 0.0775 |
| AGGTAATC | 0.0761 |
| GATTAGAC | 0.0752 |
| GCTCGCCA | 0.0723 |
| AAAAGCCG | 0.0649 |
| GTTGAATA | 0.0772 |
| ACATAGTG | 0.0802 |
| GCGACACA | 0.0786 |
| AGACAGAG | 0.0712 |
| AGGGAACT | 0.0689 |
| AGATTGGG | 0.0755 |
| CTGTTCCA | 0.0746 |
| CGCATCAC | 0.0793 |
